Where “and” joins values, the source holds several entries; their conditions need not be identical. Equal values may be shown once. Where a name gives a salt, the structure may show the parent alone. Among all 1,800 compounds or so, about 50 (3%) showed activity. The list shows a part of the results.
test system: mouse p16Ink4a+/- lung fibroblasts (INKBRITE, bleomycin-injured); assay: percentage of GFP+ (p16Ink4a+) fibroblasts among all cells in well; higher = less depletion of p16Ink4a+ cells, active = 20 or less; details: 1 µM; 3 days
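Note: fibroblasts sorted 14 days after bleomycin, GFP+ and GFP− mixed 1:1 in 384-well plates (GFP− as in-well control), imaged after Hoechst and NucView530 staining, reference wells lacked compound.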

Compound | percentage of GFP+
COc1ccc(C2CNC(=O)C2)cc1OC1CCCC1 (stereo not drawn) [Rolipram] | inactive: 40.3%
CC[C@@H]1C(=O)N(C)c2cnc(Nc3ccc(C(=O)NC4CCN(C)CC4)cc3OC)nc2N1C1CCCC1 | inactive: 27.9%
CC(=O)S[C@@H]1CC2=CC(=O)CC[C@]2(C)[C@H]2CC[C@@]3(C)[C@@H](CC[C@@]34CCC(=O)O4)[C@H]12 [Spironolactone] | inactive: 43.4%
Cn1ccnc1S [Methimazole] | inactive: 45.9%
COc1ccc2[nH]c(S(=O)Cc3ncc(C)c(OC)c3C)nc2c1 (stereo not drawn) [Esomeprazole; Omeprazole] | inactive: 43.4% and inactive: 32.8%
CC[C@@]1(O)C(=O)OCc2c1cc1n(c2=O)Cc2cc3c(CN(C)C)c(O)ccc3nc2-1 [Topotecan, Topotecan Hydrochloride] | inactive: 29.3%
Nc1nc(O)c2ncn([C@@H]3O[C@H](CO)[C@@H](O)[C@H]3O)c2n1 [Guanosine] | inactive: 39.5%
CNC(=O)c1ccc(-c2cnc3ncc(Cc4ccc5ncccc5c4)n3n2)cc1F | inactive: 55.8%
COc1cc(N2CCC(N)CC2)ccc1Nc1ncc(Cl)c(-c2c[nH]c3ccccc23)n1 | inactive: 52.7%
O=C[C@H](O)[C@@H](O)[C@H](O)CO [Xylose] | inactive: 42.5%
Cc1ccccc1N1C(=O)c2cc(S(N)(=O)=O)c(Cl)cc2NC1C (stereo not drawn) [Metolazone] | inactive: 51.2%
COc1ccccc1OCCNCC(O)COc1cccc2[nH]c3ccccc3c12 (stereo not drawn) [Carvedilol, Carvedilol Phosphate] | inactive: 40.9%
COc1cc(Cc2cnc(N)nc2N)cc(OC)c1OC [Trimethoprim] | inactive: 46.9%
COc1ccc2c(c1)c(CC(=O)N1CCOCC1)c(C)n2C(=O)c1ccc(Cl)cc1 | inactive: 41.2%
O=C(CCCCCCNC(=O)c1cnc(N(c2ccccc2)c2ccccc2)nc1)NO [Rocilinostat] | inactive: 46.4%
COc1nc(C)cnc1NS(=O)(=O)c1cccnc1-c1ccc(-c2nnco2)cc1 [Zibotentan] | inactive: 33.2%
COc1cc2c(Oc3ccc(NC(=O)C4(C(=O)Nc5ccc(F)cc5)CC4)cc3F)ccnc2cc1OCCCN1CCOCC1 [Foretinib] | inactive: 36%
CCOc1cc(N)c(Cl)cc1C(=O)NCC1CN(Cc2ccc(F)cc2)CCO1 (stereo not drawn) [Mosapride, Mosapride Citrate] | inactive: 37.1%
OC[C@@H](O)CN1CCN(c2ccccc2)CC1 [Levodropropizine] | inactive: 43.8%
C[C@H](Cn1cnc2c(N)ncnc21)OCP(=O)(O)O [Tenofovir] | inactive: 36.4%
Cc1ncc([N+](=O)[O-])n1CC(O)CCl (stereo not drawn) [Ornidazole] | inactive: 43.3%
OCCOCCN1CCN(C2=Nc3ccccc3Sc3ccccc32)CC1 [Quetiapine] | inactive: 44.3%
Cc1cc([C@@H](C)Nc2ccccc2C(=O)O)c2nc(N3CCOCC3)cc(=O)n2c1 | inactive: 48.8%

Compound | percentage of GFP+
COc1ccc2cc(-c3[nH]c(-c4ccc(S(C)=O)cc4)nc3-c3ccncc3)ccc2c1 (stereo not drawn) [Tie2 kinase inhibitor] | inactive: 43.3%
Cc1cc(C#N)cc(C)c1Oc1nc(Nc2ccc(C#N)cc2)nc(N)c1Br [Etravirine] | inactive: 35%
COc1ccc2cccc(CCNC(C)=O)c2c1 [Agomelatine] | inactive: 39.1%
Cn1cc(-c2cnn3c(N)c(Br)c([C@@H]4CCCNC4)nc23)cn1 | inactive: 33.3%
O=C(NCCCNc1nc(Nc2cccc(NC(=O)N3CCCC3)c2)ncc1I)c1cccs1 | inactive: 49.3%
COc1cccc2c1C(=O)c1c(O)c3c(c(O)c1C2=O)C[C@@](O)(C(C)=O)C[C@@H]3O[C@H]1C[C@H](N)[C@H](O)[C@H](C)O1 [Daunorubicin] | inactive: 24.3%
c1ccc(CNc2nc(NCc3ccccc3)c3ccccc3n2)cc1 | inactive: 52.1%
CC(C)NC[C@@H](C(=O)N1CCN(c2ncnc3c2[C@H](C)C[C@H]3O)CC1)c1ccc(Cl)cc1 | inactive: 48.3%
COc1ccc(/C=C/C(=O)Nc2ccccc2C(=O)O)cc1OC [Tranilast] | inactive: 48.4%
CC(C)(C)c1cnc(CSc2cnc(NC(=O)C3CCNCC3)s2)o1 | inactive: 28.7%
CN(C)C(=O)c1cc2cnc(Nc3ccc(N4CCNCC4)cn3)nc2n1C1CCCC1 [Ribociclib] | inactive: 33.4%
CNS(=O)(=O)Cc1ccc2[nH]cc(CCN(C)C)c2c1 [Sumatriptan] | inactive: 41.3%
NS(=O)(=O)c1cc(C(=O)O)c(NCc2ccco2)cc1Cl [Furosemide] | inactive: 44.2%
Cn1cc(-c2[nH]c3cc(NC(=O)[C@H](N)C4CCCCC4)cc4c3c2C=NNC4=O)cn1 | inactive: 34.8%
CCn1cc(-c2ccnc3[nH]c(-c4cccc(CN(C)C)c4)cc23)c(-c2ccc(NC(=O)N(C)C)cc2)n1 | inactive: 36.6%
C#Cc1cccc(Nc2ncnc3cc(OC)c(OCCCCCCC(=O)NO)cc23)c1 | inactive: 37.4%
O=C(Nc1ccc2c(=O)cc(-c3nn[nH]n3)oc2c1)c1ccc(OCCCCc2ccccc2)cc1 [Pranlukast] | inactive: 35.1%
NS(=O)(=O)c1cc2c(cc1Cl)NC=NS2(=O)=O [Chlorothiazide] | inactive: 47.1%
O=c1n(CCCN2CCN(c3cccc(Cl)c3)CC2)nc2ccccn12 [Trazodone] | inactive: 47.3%
O=C(Nc1ccncc1)c1cc([N+](=O)[O-])ccc1Cl | inactive: 37.9%
Nc1cc(F)ccc1NC(=O)/C=C/c1cnn(C/C=C/c2ccccc2)c1 | inactive: 42.8%
CN(c1ncccc1CNc1nc(Nc2ccc3c(c2)CC(=O)N3)ncc1C(F)(F)F)S(C)(=O)=O | inactive: 47.5% and inactive: 35.2% and inactive: 41.3%
CN1CCN(c2c(F)cc3c(=O)c(C(=O)O)cn4c3c2OCN4C)CC1 [Marbofloxacin] | inactive: 37.3%

Compound | percentage of GFP+
COc1cc2c(Nc3ccc(NC(=O)c4ccccc4)cc3)ncnc2cc1OCCCN1CCOCC1 | inactive: 42%
CC[C@H](C)[C@H]1O[C@]2(CC[C@@H]1C)C[C@@H]1C[C@@H](C/C=C(\C)[C@@H](O[C@H]3C[C@H](OC)[C@@H](O[C@H]4C[C@H](OC)[C@@H](O)[C@H](C)O4)[C@H](C)O3)[C@@H](C)/C=C/C=C3\CO[C@@H]4[C@H](O)C(C)=C[C@@H](C(=O)O1)[C@]34O)O2 [Ivermectin] | inactive: 37.9%
CC(NC(=O)c1ccccc1/N=C/c1c(O)ccc2ccccc12)c1ccccc1 (stereo not drawn) [Sirtinol] | inactive: 41.1%
CN(C)CC(c1ccc(O)cc1)C1(O)CCCCC1 (stereo not drawn) [Desvenlafaxine] | inactive: 48.3% and inactive: 52.9%
Cc1[nH]c2ccccc2c1CCNCc1ccc(/C=C/C(=O)NO)cc1 [Panobinostat] | active: 2.9%
CC(C)CC(N)=O [Isovaleramide] | inactive: 51.2%
COCCCOc1cc(C[C@@H](C[C@H](N)[C@@H](O)C[C@H](C(=O)NCC(C)(C)C(N)=O)C(C)C)C(C)C)ccc1OC [Aliskiren] | inactive: 43.2%
Nc1ncn([C@H]2C[C@H](O)[C@@H](CO)O2)c(=O)n1 [Decitabine] | inactive: 31%
CN(C)C(=O)COC(=O)Cc1ccc(OC(=O)c2ccc(NC(=N)N)cc2)cc1 [Camostat] | inactive: 41.3%
CCCCC(=O)N(Cc1ccc(-c2ccccc2-c2nn[nH]n2)cc1)[C@H](C(=O)O)C(C)C [Valsartan] | inactive: 41.6%
O=C(O)c1cc(N=Nc2ccc(S(=O)(=O)Nc3ccccn3)cc2)ccc1O [Sulfasalazine] | inactive: 39.2%
Cn1cnc2c(F)c(Nc3ccc(Br)cc3Cl)c(C(=O)NOCCO)cc21 [Selumetinib] | inactive: 43.8%
O=C(c1ccc(C(=O)N2CCC(N3CCCC3)CC2)c(Nc2ccccc2)c1)N1CCC(N2CCCC2)CC1 | inactive: 43.6%
CC[C@H](C)C(=O)O[C@H]1CCC=C2C=C[C@H](C)[C@H](CC[C@@H]3C[C@@H](O)CC(=O)O3)[C@H]21 [Mevastatin] | inactive: 48.9%
CC[C@]1(O)C[C@@H]2CN(CCc3c([nH]c4ccccc34)[C@@](C(=O)OC)(c3cc4c(cc3OC)N(C)[C@@H]3C45CCN4CC=C[C@](CC)([C@H]45)[C@@H](OC(C)=O)[C@]3(O)C(=O)OC)C2)C1 (stereo partly drawn) [Vinblastine] | inactive: 24.8%
NC(=O)Cc1cccc(C(=O)c2ccccc2)c1N [Nepafenac] | inactive: 44.9%
C=C1CC[C@H](O)C/C1=C/C=C1\CCC[C@]2(C)[C@@H]([C@H](C)/C=C/[C@H](C)C(C)C)CC[C@@H]12 [Ergocalciferol] | inactive: 44.9%
Cc1onc(-c2c(Cl)cccc2Cl)c1C(=O)N[C@@H]1C(=O)N2[C@@H]1SC(C)(C)[C@@H]2C(=O)O [Dicloxacillin] | inactive: 49.2%
O=C(O)c1ccc2c(c1)nc(Nc1cccc(Cl)c1)c1ccncc12 [Silmitasertib] | inactive: 43.8%
CC(C)NCC(O)COc1cccc2ccccc12 (stereo not drawn) [Propranolol] | inactive: 48.8%
O=C1CCc2ccc(OCCCCN3CCN(c4cccc(Cl)c4Cl)CC3)cc2N1 [Aripiprazole] | inactive: 43.3%
COc1cc(O)cc([C@@H]2CC(=O)c3c(O)cc(O[C@@H]4O[C@H](CO)[C@@H](O)[C@H](O)[C@H]4O[C@@H]4O[C@@H](C)[C@H](O)[C@@H](O)[C@H]4O)cc3O2)c1 [Neohesperidin] | inactive: 49.7%

Reference: the supplement of paper PMC11060735
